Patent US20230135471A1 (INTEGRATED DNA TECHNOLOGIES, published 2023)
Numbering of substitutions follows the chain as printed. In names and notes the source's numbering stands.

B1: T7M (SM3) (designed binder)
Ubv: MHHHHHHGGSGMLIFVKMLTGKTITLEVEPSDTIENVKAKIQDKEGIPPDQQRLAFAGKSLEDGRTLSDYNILKDSKLHPLLRLR
B2: A44T (SM18) (designed binder)
Ubv: B1 Ubv with M18T, A55T
B3: K33H (SM14) (designed binder)
Ubv: B1 Ubv with M18T, K44H
B4: V26I (SM9) (designed binder)
Ubv: B1 Ubv with M18T, V37I
B5: T12M (SM4) (designed binder)
Ubv: B1 Ubv with M18T, T23M
B6: N25V (SM8) (designed binder)
Ubv: B1 Ubv with M18T, N36V
B7: Q31C (SM11) (designed binder)
Ubv: B1 Ubv with M18T, Q42C
B8: E18M (SM7) (designed binder)
Ubv: B1 Ubv with M18T, E29M
B9: S57G (SM22) (designed binder)
Ubv: B1 Ubv with M18T, S68G
B10: R42W (SM17) (designed binder)
Ubv: B1 Ubv with M18T, R53W
B11: Q31W (SM10) (designed binder)
Ubv: B1 Ubv with M18T, Q42W
B12: K33S (SM13) (designed binder)
Ubv: B1 Ubv with M18T, K44S
B13: R54Y (SM21) (designed binder)
Ubv: B1 Ubv with M18T, R65Y
B14: E16M (SM6) (designed binder)
Ubv: B1 Ubv with M18T, E27M
B15: P38L (SM16) (designed binder)
Ubv: B1 Ubv with M18T, P49L
B16: Q31F (SM12) (designed binder)
Ubv: B1 Ubv with M18T, Q42F
B17: K48T (SM20) (designed binder)
Ubv: B1 Ubv with M18T, K59T
B18: P62G (CM448) (designed binder)
Ubv: MHHHHHHGGSGYMIFVRMLTGKMIELEVEPSDTIENIKAKIQDHEGIPLDQQRLTFQGKLLEDGRTLSDYNLGISPEKMAVLRMQ
B19: P62H (CM449) (designed binder)
Ubv: B18 Ubv with G73H
B20: P62Y (CM457) (designed binder)
Ubv: B18 Ubv with G73Y
B21: P62R (CM442) (designed binder)
Ubv: B18 Ubv with G73R
B22: P62K (CM451) (designed binder)
Ubv: B18 Ubv with G73K
B23: P62S (CM454) (designed binder)
Ubv: B18 Ubv with G73S
B24: P62W (CM456) (designed binder)
Ubv: B18 Ubv with G73W
B25: P62V (CM458) (designed binder)
Ubv: B18 Ubv with G73V
B26: P62D (CM444) (designed binder)
Ubv: B18 Ubv with G73D
B27: P62F (CM453) (designed binder)
Ubv: B18 Ubv with G73F
B28: P62E (CM446) (designed binder)
Ubv: B18 Ubv with G73E
B29: P62N (CM443) (designed binder)
Ubv: B18 Ubv with G73N
B30: P62M (CM452) (designed binder)
Ubv: B18 Ubv with G73M
B31: P62I (CM450) (designed binder)
Ubv: B18 Ubv with G73I
B32: P62Q (CM447) (designed binder)
Ubv: B18 Ubv with G73Q
B33: L2A (CM478) (designed binder)
Ubv: B18 Ubv with M13A, G73T
B34: L2H (CM486) (designed binder)
Ubv: B18 Ubv with M13H, G73T
B35: L2D (CM481) (designed binder)
Ubv: B18 Ubv with M13D, G73T
B36: L2E (CM483) (designed binder)
Ubv: B18 Ubv with M13E, G73T
B37: CM487, His-tagged (designed binder)
chain: B18 Ubv with M13I, G73T
B38: L2F (CM490) (designed binder)
Ubv: B18 Ubv with M13F, G73T
B39: L2G (CM485) (designed binder)
Ubv: B18 Ubv with M13G, G73T
B40: CM489, His-tagged (designed binder)
chain: B18 Ubv with M13L, G73T
B41: CM429 (CM476 + L69A), His-tagged (designed binder)
chain: B18 Ubv with G73P
B42: L69F+V70F (CM461) (designed binder)
Ubv: B18 Ubv with G73P, A80F, V81F
B43: L69F+V70C (CM464) (designed binder)
Ubv: B18 Ubv with G73P, A80F, V81C
B44: L69M+V70C (CM463) (designed binder)
Ubv: B18 Ubv with G73P, A80M, V81C
B45: L69M+V70F (CM460) (designed binder)
Ubv: B18 Ubv with G73P, A80M, V81F
B46: L69A+V70F (CM433) (designed binder)
Ubv: B18 Ubv with G73P, V81F
B47: L69A+V70C (CM434) (designed binder)
Ubv: B18 Ubv with G73P, V81C
B48: L69G+V70C (CM437) (designed binder)
Ubv: B18 Ubv with G73P, A80G, V81C
B49: L69M+V70M (CM439) (designed binder)
Ubv: B18 Ubv with G73P, A80M, V81M
B50: L69G+V70F (CM436) (designed binder)
Ubv: B18 Ubv with G73P, A80G, V81F
B51: L69C+V70C (CM462) (designed binder)
Ubv: B18 Ubv with G73P, A80C, V81C
B52: L69G (CM430) (designed binder)
Ubv: B18 Ubv with G73P, A80G
B53: L69G+V70M (CM435) (designed binder)
Ubv: B18 Ubv with G73P, A80G, V81M
B54: L69A+V70M (CM432) (designed binder)
Ubv: B18 Ubv with G73P, V81M
B55: L69F+V70M (CM440) (designed binder)
Ubv: B18 Ubv with G73P, A80F, V81M
B56: L69C+V70F (CM459) (designed binder)
Ubv: B18 Ubv with G73P, A80C, V81F
B57: L69C+V70M (CM438) (designed binder)
Ubv: B18 Ubv with G73P, A80C, V81M

molecular target: MBP tagged 53BP1 fragment (a.a. 1484-1603); assay: BLI, fold change Ka of Ubv/Ka of i53

**Q.** Does B1 bind?
**A.** Result: binds

**Q.** Does B2 bind?
**A.** Result: binds

**Q.** Does B3 bind?
**A.** Result: binds

**Q.** Does B4 bind?
**A.** Result: binds

**Q.** Does B5 bind?
**A.** Result: binds

**Q.** Does B6 bind?
**A.** Result: binds

**Q.** Does B7 bind?
**A.** Result: binds

**Q.** Does B8 bind?
**A.** Result: binds

**Q.** Does B9 bind?
**A.** Result: binds

**Q.** Does B10 bind?
**A.** Result: binds

**Q.** Does B11 bind?
**A.** Result: binds

**Q.** Does B12 bind?
**A.** Result: binds

**Q.** Does B13 bind?
**A.** Result: binds

**Q.** Does B14 bind?
**A.** Result: binds

**Q.** Does B15 bind?
**A.** Result: binds

**Q.** Does B16 bind?
**A.** Result: binds

**Q.** Does B17 bind?
**A.** Result: binds

molecular target: MBP tagged 53BP1 fragment (a.a. 1484-1603); assay: BLI, fold change Ka of Ubv/Ka of CM429

**Q.** Does B18 bind?
**A.** Result: binds

**Q.** Does B19 bind?
**A.** Result: binds

**Q.** Does B20 bind?
**A.** Result: binds

**Q.** Does B21 bind?
**A.** Result: binds

**Q.** Does B22 bind?
**A.** Result: binds

**Q.** Does B23 bind?
**A.** Result: binds

**Q.** Does B24 bind?
**A.** Result: binds

**Q.** Does B25 bind?
**A.** Result: binds

**Q.** Does B26 bind?
**A.** Result: binds

**Q.** Does B27 bind?
**A.** Result: binds

**Q.** Does B28 bind?
**A.** Result: binds

**Q.** Does B29 bind?
**A.** Result: binds

**Q.** Does B30 bind?
**A.** Result: binds

**Q.** Does B31 bind?
**A.** Result: binds

**Q.** Does B32 bind?
**A.** Result: binds

molecular target: MBP tagged 53BP1 fragment (a.a. 1484-1603); assay: BLI, fold change Ka of Ubv/Ka of CM489

**Q.** Does B33 bind?
**A.** Result: binds

**Q.** Does B34 bind?
**A.** Result: binds

**Q.** Does B35 bind?
**A.** Result: binds

**Q.** Does B36 bind?
**A.** Result: binds

**Q.** Does B37 bind?
**A.** Result: binds

**Q.** Does B38 bind?
**A.** Result: binds

**Q.** Does B39 bind?
**A.** Result: binds

**Q.** Does B40 bind?
**A.** Result: binds

molecular target: MBP tagged 53BP1 fragment (a.a. 1484-1603); assay: BLI, KA (M-1), log axis; CM476 with the indicated mutation

**Q.** Does B41 bind?
**A.** Result: binds

**Q.** Does B42 bind?
**A.** Result: binds

**Q.** Does B43 bind?
**A.** Result: binds

**Q.** Does B44 bind?
**A.** Result: binds

**Q.** Does B45 bind?
**A.** Result: binds

**Q.** Does B46 bind?
**A.** Result: binds

**Q.** Does B47 bind?
**A.** Result: binds

**Q.** Does B48 bind?
**A.** Result: binds

**Q.** Does B49 bind?
**A.** Result: binds

**Q.** Does B50 bind?
**A.** Result: binds

**Q.** Does B51 bind?
**A.** Result: binds

**Q.** Does B52 bind?
**A.** Result: binds

**Q.** Does B53 bind?
**A.** Result: binds

**Q.** Does B54 bind?
**A.** Result: binds

**Q.** Does B55 bind?
**A.** Result: binds

**Q.** Does B56 bind?
**A.** Result: binds

**Q.** Does B57 bind?
**A.** Result: binds
